B1: chr13:36848462:36848578:-|3pUTR|ENSG00000120693|unk|total|mutant (ssRNA)
RNA: GGGAGUUCUACAGUCCGACGAUCAAAUACACCGAAUGUAUACUGUUCUUAUUUUUUUUAAUCACCGUUUGUUUUGUGCUUUCCCGUUAACCUGAUGCCAGUACAGUGCAAUUGGAAAAGCAGGACUUUGGUGCCUGUGCUAUACAACAGAGGAUUGAGCAUCA
B2: chr10:22535117:22535218:-|3pUTR|ENSG00000150867|unk|FALSE|unique (ssRNA)
RNA: GGGAGUUCUACAGUCCGACGAUCAAGGUACACAUACAUUAUUUGAGUAACUGUUUCCUUGGGGGCCAAUCUGUGUAUGCUUUUAGAAGUUUACAGAAUGCUUUUAUUUUUGUCUAUAACAAACAGUCUGUCAUUUAUUUCUGUCAACAGAGGAUUGAGCAUCA
B3: chr13:110149562:110149758:-|3pUTR|ENSG00000187498|msi1|total|mutant (ssRNA)
RNA: GGGAGUUCUACAGUCCGACGAUCUAAAUAUAUAUAUAUAUCCGUAAUUUAUACCGAUGUCAGCAAUCCGGCAGAUCAAGGUUCCGUUUAACUUCCACUGUUAAAAUAAAGCUUACACCGUUUUCUUCCUUUGAAAGACUGUGCCAACAGAGGAUUGAGCAUCA
B4: ENSG00000135862:stop:overlap|stop_codon|ENSG00000135862|stop_codon|NA|stop_codon (ssRNA)
RNA: GGGAGUUCUACAGUCCGACGAUCAGGACAUCAGGAAGACCUUACCAUCUGGCUGCUUCAACACCCCGUCCAUUGAAAAGCCCUAGUGUCUUUAGGGCUGGAAGGCAGCAUCCCUCUGACAGGGGGGCAGUUGUGAGGCCACAGCAACAGAGGAUUGAGCAUCA
B5: chr8:97851660:97851768:+|3pUTR|ENSG00000104341|msi1_unk|FALSE|overlapping (ssRNA)
RNA: GGGAGUUCUACAGUCCGACGAUCAUUAACUGUAGAAUUCUUCCUGUACGAUUGGGGAUAUAAUGGGCUUCACUAACCUUCCCUAGGCAUUGAAACUUCCCCCAAAUCUGAUGGACCUAGAAGUCUGCUUUUGUACCUGCUGGGCAACAGAGGAUUGAGCAUCA
B6: chr3:196782704:196782805:+|CDS|ENSG00000180370|unk|total|mutant (ssRNA)
RNA: GGGAGUUCUACAGUCCGACGAUCAACGGAGAACUGGAAGAUAAGCCUCCAGCACCUCCUGUGCGAAUGAGCAGCACCAUCUUCCGCACUGGAGGCAAAGACCCUUUGUCAGCCAAUCACAGUUUGAAACCUUUGCCCUCUGUUCAACAGAGGAUUGAGCAUCA
B7: chr3:89481969:89482070:+|3pUTR|ENSG00000044524|msi1|total|mutant (ssRNA)
RNA: GGGAGUUCUACAGUCCGACGAUCAUAUGUGUUUACUUUAAACUUGUCUUUUCAAAAUAUUACUCAGUUUAUGUUGUACAAUGCCGAUGGCCUCUUACUAAUGUAAAAUGAUUUGCCGUGGAAACAUUUAUAUUUUUAUAAUAACAACAGAGGAUUGAGCAUCA
B8: chr14:22612100:22612201:+|3pUTR|ENSG00000100439|msi1|FALSE|unique (ssRNA)
RNA: GGGAGUUCUACAGUCCGACGAUCCCACCCCUGACCCAUCUGUCAGCUUUUUCCCAGGGAGCCGUUUCAGGGGUUCUGGGCAGUAGGCUGGGCCUGGCCUCAGAACCUGGUGGCUCCUGCCUGCUCCUUCACUUUUGUAAAACCCAACAGAGGAUUGAGCAUCA
B9: ENSG00000070961:be:win_1|CDS|ENSG00000070961|bound_else_gene|NA|bound_elsewhere_windowed (ssRNA)
RNA: GGGAGUUCUACAGUCCGACGAUCAUGGGCGACAUGGCAAACAACUCAGUUGCUUACAGUGGUGUGAAAAACUCUUUGAAGGAAGCUAAUCAUGAUGGAGACUUUGGAAUUACGCUCGCAGAGCUGCGGGCUCUCAUGGAGCUCCAACAGAGGAUUGAGCAUCA
B10: chr4:2944067:2944171:-|CDS|ENSG00000087269|unk|total|mutant (ssRNA)
RNA: GGGAGUUCUACAGUCCGACGAUCGGCUUUGUCCCAGAGGUUUAUACCUGAGCUUAUUAAUUUUCUUCUUGGGAUUCUUUACACCGCAACUCCAAACAAAGCAAGCCAAGGUGAGUUGAUUUGAGGGAGGUUCCUACAAAUAUGCAACAGAGGAUUGAGCAUCA
B11: chr2:1632407:1632508:-|3pUTR|ENSG00000130508|msi1|total|mutant (ssRNA)
RNA: GGGAGUUCUACAGUCCGACGAUCUUGGUAAGUGAUUGAUAAAAAUUGGUUGGUGUUUCAUGACAUGUGGACUUCUUUUGAAACCGCAAGUCAAAUGCCGUGACCAAAUUGUGGAAGAGAUUUCUGUCAAACCGGAAAUGUGUACAACAGAGGAUUGAGCAUCA
B12: chr11:95131931:95132033:+|3pUTR|ENSG00000149218|unk|FALSE|bound_elsewhere (ssRNA)
RNA: GGGAGUUCUACAGUCCGACGAUCGGAUAGGUGGCUGAGACCCACUGCCCUGAGCUACUAGUGUGGCUGUGCCUGUGGGUCUCUAGAACCAUCUGCAUUGGACGUGAAGCCACAGCAGGUGGCUGGACUGCUGGCCUGUUCCUACAACAGAGGAUUGAGCAUCA
B13: chrX:119453419:119453520:+|3pUTR|ENSG00000077713|unk|total|mutant (ssRNA)
RNA: GGGAGUUCUACAGUCCGACGAUCCAGGUAAUUGAAGUGGCUGAGUGGAUACCACGUUGUGAGGUCAGCCACUGGGUCACUUGCCGUCAAUGCAAAGCUUGCACAAACCAACGUCAGCCCCGUUUCACUCAGUUUGACCUGAGACAACAGAGGAUUGAGCAUCA
B14: chr7:149003559:149003660:-|3pUTR|ENSG00000155660|msi1|FALSE|unique (ssRNA)
RNA: GGGAGUUCUACAGUCCGACGAUCUUUUAUACUUUGGUGUUUCACUUCAUGCUCUGAAUACUGAAUAACCAUGAAUGACUGAAUAGUUUAGUCCAGAUUUUUACAGAGGAUACAUCUAUUUUUAUCAUUAUUUGGGGUUUGAAACAACAGAGGAUUGAGCAUCA
B15: chr1:185309019:185309167:-|CDS|ENSG00000116679|unk|total|mutant (ssRNA)
RNA: GGGAGUUCUACAGUCCGACGAUCGCACACAGAGCAGUGCCCGCUUGCUGCAGUCCCUAUUUAUUUGAAAUCUUUAACCGUGACCGUGAUCCUCAUGGAAUUUCUCACGUUAAAUUUGAUGAUCUCAAUCCAGAAGCUGUUGAACAACAGAGGAUUGAGCAUCA
B16: chr14:71588152:71588260:+|CDS|ENSG00000197555|unk|FALSE|unique (ssRNA)
RNA: GGGAGUUCUACAGUCCGACGAUCGAAAACAUAAAAGAAUCUAGCCGUUCAAGCCAGGAAAUAGAAACCUCAAGUUGCCUUGAUAGCCUGUCCUCCAAAAGCAGUCCUGUGAGUCAGGGAAGUUCUGUUAGCCUCAAUUCCAAUCAACAGAGGAUUGAGCAUCA
B17: chr5:141516432:141516515:-|3pUTR|ENSG00000131504|msi1_unk|FALSE|overlapping (ssRNA)
RNA: GGGAGUUCUACAGUCCGACGAUCCUCAGACAAGGCCCAGCCUGCUUUUUCUCAGCCCUGACUUUCUAAUGGGCUUUCCCCCCUAGGUCAGUCUUGCUGGAUUUGUGCUUUUCUUUUGUGGUUUCUCUGGCCCUGAGAAUAGCACAACAGAGGAUUGAGCAUCA
B18: ENSG00000198589:be:win_3501|CDS|ENSG00000198589|bound_else_gene|NA|bound_elsewhere_windowed (ssRNA)
RNA: GGGAGUUCUACAGUCCGACGAUCUGAUACUGAAACUCAAGAUUCUAAAGAUUCUGGAAUUCAGACUAUGACAGCAUCAGGGUCUUCAGCUAUGUCACCAGAAACUACUGUUUCCCAAAUAGCUGUAGAAUCAGACCUUGGUCACAACAGAGGAUUGAGCAUCA
B19: chr4:83459516:83462902:-|three_prime_utr|ENSG00000163322|control|control|control (ssRNA)
RNA: GGGAGUUCUACAGUCCGACGAUCUUACGGACCUUUUUUCCAAAUUCUGAAUUUCUUCAUUCAUGUGUUAUGUCUUUAAAAAAUAGACAUGUUUCUAAAAGUAGCUGUAACUACAACCACCAUCUCGAUGUAGUAGACAAUCUGCAACAGAGGAUUGAGCAUCA
B20: chr1:220062840:220062943:-|CDS|ENSG00000162813|unk|FALSE|unique (ssRNA)
RNA: GGGAGUUCUACAGUCCGACGAUCGUUUACACAGGCAGGACCAGAUGCUGUGUUGGGGAGGACAAUCUGGGGAGUUUUAGGUUUAGGCGCCUUUGGGUUUCAGCUGAAAGAAGUCCCUGCUGGGAAACACAUUAUCACAACUACCAACAGAGGAUUGAGCAUCA
B21: chr20:5938399:5938502:-|3pUTR|ENSG00000089195|unk|FALSE|unique (ssRNA)
RNA: GGGAGUUCUACAGUCCGACGAUCGUCUGACUCUUAACCCUUUUGAGAAUUGCUCUGAAUUUUGUUCUCAGGCAUUAUACAGUUAGUAAUUAAACUUUAAAUGCCAUUACUACUUGUUUUUUCAUAUCCCAAGAAUAAGAACAUCAACAGAGGAUUGAGCAUCA
B22: chrX:101413019:101413185:+|CDS|ENSG00000126945|unk|FALSE|unique (ssRNA)
RNA: GGGAGUUCUACAGUCCGACGAUCGGAGCUCUUCUUAAAUUCUACUGCAGGAACAAGUGGGGGUGCUUACGAUCACAGCUAUGUAGAACUUUUUUUGAAUUCUACAGCAGGGGCAAGUGGUGGCGCUUAUGGUAGCCAAAUGAUCAACAGAGGAUUGAGCAUCA

The other results are listed elsewhere or left out.

The target in the assay is T1, UNK ZnF1-6 (called full-length) (human, UniProt Q9C0B0 30-357).
T1 sequence: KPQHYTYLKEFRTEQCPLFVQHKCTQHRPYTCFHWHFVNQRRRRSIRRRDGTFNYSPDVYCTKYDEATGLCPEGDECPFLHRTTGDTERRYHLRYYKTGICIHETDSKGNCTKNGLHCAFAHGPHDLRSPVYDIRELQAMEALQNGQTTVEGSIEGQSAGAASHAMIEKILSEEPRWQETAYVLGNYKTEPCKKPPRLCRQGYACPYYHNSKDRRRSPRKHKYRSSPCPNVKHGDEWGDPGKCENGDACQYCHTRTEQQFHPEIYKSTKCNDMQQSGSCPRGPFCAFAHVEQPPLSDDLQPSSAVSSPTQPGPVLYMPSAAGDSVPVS
The assay is described as follows: nsRBNS (natural sequence RNA bind-n-seq); RBNS binding buffer (assumed for nsRBNS): 25 mM Tris pH 7.5, 150 mM KCl, 3 mM MgCl2, 0.01% Triton X-100, 500 ug/ml BSA, 20 U/ml SUPERase-In, 4 C; UNK is unkempt and MSI1 is Musashi-1; names of the RNAs are library labels; protein concentration not given here; high values mean tight binding.
Take B1: the binding signal worked out at 1.67 enrichment R.

Regarding B2, the binding signal was found to be 0.472 enrichment R.

Consider B3, for which the binding signal worked out at 1.36 enrichment R.

Take B4: the binding signal was determined as 0.567 enrichment R.

In turn, B5 came in with a binding signal of 1.04 enrichment R.

Regarding B6, the binding signal was 0.544 enrichment R.

The molecule B7 had a binding signal of 0.702 enrichment R.

B8 came in with a binding signal of 0.718 enrichment R.

B9 showed a binding signal of 0.508 enrichment R.

In turn, B10 returned a binding signal of 0.726 enrichment R.

For the molecule B11, the binding signal worked out at 0.207 enrichment R.

As to B12, the binding signal amounted to 0.43 enrichment R.

B13 returned a binding signal of 0.475 enrichment R.

With B14, the binding signal came to 0.578 enrichment R.

For B15, the binding signal is 0.633 enrichment R.

In the case of B16, the binding signal is 0.808 enrichment R.

B17 gave a binding signal of 0.705 enrichment R.

B18: the binding signal is 0.311 enrichment R.

As to B19, the binding signal was determined as 0.723 enrichment R.

Regarding B20, the binding signal was 1.36 enrichment R.

Turning to B21, the binding signal came out at 0.795 enrichment R.

For B22, the binding signal stood at 1.17 enrichment R.

The values above are taken from PMC12136788.
